A lower IC50 marks a more sensitive line; a limit (>, <) means that the fit lies beyond the doses tested. For AUC the same curve is integrated over the 256-fold range of doses and scaled to a fraction; it is 1 without any effect and falls as sensitivity rises. For some of these results: Where the top dose is marked as inferred, it was derived from the fitted curves, not read from the paper. For some of these results: Drugs with an entry number were screened twice under separate entries, and the two screens often disagree.
Key:
Assay in all cases: Viability of human cancer cell lines after 72 h of drug (GDSC screen)
CUDC-101 = compound: C#Cc1cccc(Nc2ncnc3cc(OC)c(OCCCCCCC(=O)NO)cc23)c1 [CUDC-101]; settings: top dose 5.12 µM; top dose inferred
Description: (§1)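 Human cancer cell lines in 384-well plates, medium with 10% serum, drug for 72 h over a 256-fold dose range (nine 2-fold or five 4-fold steps up to the top dose). Adherent lines were fixed and stained with the nucleic acid dye Syto60, suspension lines read with resazurin; signal relative to control wells, capped at 0 and 100%. One two-parameter sigmoid per drug and line, fitted in a mixed model over all curves with the slope shared within a line.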

AC220 = compound: CC(C)(C)c1cc(NC(=O)Nc2ccc(-c3cn4c(n3)sc3cc(OCCN5CCOCC5)ccc34)cc2)no1 [AC220]; settings: top dose 1.024 µM; top dose inferred
Description: as §1

RDEA119 = compound: COc1cc(F)c(F)c(Nc2ccc(I)cc2F)c1NS(=O)(=O)C1(C[C@H](O)CO)CC1 [RDEA119]; settings: top dose 5 µM, top dose inferred
Description: as §1

JNK-9L = compound: Fc1cc(-c2ccnc(Nc3ccc(-n4cnc(N5CCOCC5)n4)cc3)n2)cc(N2CCOCC2)c1 [JNK-9L]; settings: top dose 5.12 µM; top dose inferred
Description: as §1

OSU-03012 = compound: NCC(=O)Nc1ccc(-n2nc(C(F)(F)F)cc2-c2ccc3c(ccc4ccccc43)c2)cc1 [OSU-03012]; settings: top dose 16 µM; top dose inferred
Description: as §1

5-Fluorouracil = compound: O=c1[nH]cc(F)c(=O)[nH]1 [5-Fluorouracil]; settings: top dose 32 µM; top dose inferred
Description: as §1

QS11 = compound: OC[C@H](Cc1ccccc1)Nc1nc(Oc2ccc3c(c2)CCC3)nc2c1ncn2Cc1ccc(-c2ccccc2)cc1 [QS11]; settings: top dose 10.24 µM
Description: as §1

Cell Line	AUC (CUDC-101)	IC50 (CUDC-101) [nM]	AUC (AC220)	IC50 (AC220) [nM]	AUC (RDEA119; screen: GDSC drug entry 1014)	IC50 (RDEA119; screen: GDSC drug entry 1014) [nM]	AUC (RDEA119; screen: GDSC drug entry 1526)	IC50 (RDEA119; screen: GDSC drug entry 1526) [nM]	AUC (JNK-9L)	IC50 (JNK-9L) [nM]	AUC (OSU-03012)	IC50 (OSU-03012) [nM]	AUC (5-Fluorouracil)	IC50 (5-Fluorouracil) [nM]	AUC (QS11)	IC50 (QS11) [nM]
PCI-4B (head and neck, adherent)	0.442	224	0.987	> 1020	0.598	572	0.685	997	0.557	455	0.659	2700	0.504	2050	0.919	> 10200
LB1047-RCC (kidney, adherent)	0.566	497	0.98	> 1020	0.673	1010	0.698	1220	0.503	326	0.752	5910	0.938	> 32000	0.91	> 10200
HT-1376 (bladder, adherent)	0.92	> 5120	0.985	> 1020	0.808	3170	0.874	> 5000	0.62	729	0.745	5820	0.985	> 32000	0.882	> 10200
SJRH30 (rhabdomyosarcoma, adherent)	0.516	354	0.981	> 1020	0.939	> 5000			0.583	546	0.725	4460	0.97	> 32000	0.936	> 10200
Hs940-T (melanoma, adherent)	0.657	961	0.949	> 1020			0.921	> 5000	0.358	119	0.638	2620	0.974	> 32000	0.914	> 10200
P12-ICHIKAWA (T-cell lymphoblastic leukaemia, suspension)	0.204	56.9	0.978	> 1020	0.994	> 5000	0.994	> 5000	0.667	826	0.516	1100	0.679	5540	0.847	5110
Hs-445 (Hodgkin lymphoma, suspension)	0.39	164	0.988	> 1020			0.904	> 5000	0.619	661	0.829	8930	0.667	5610	0.989	> 10200
TE-1 (oesophagus, adherent)	0.89	> 5120	0.979	> 1020	0.861	> 5000	0.846	> 5000	0.897	> 5120	0.584	1810	0.932	> 32000	0.867	> 10200
JEG-3 (urogenital system, adherent)	0.99	> 5120	0.991	> 1020	0.982	> 5000	0.989	> 5000	0.558	454	0.842	9630	0.991	> 32000	0.964	> 10200
MPP-89 (mesothelioma, adherent)	0.436	203	0.981	> 1020	0.774	2590	0.895	> 5000	0.801	3420	0.819	13000	0.972	> 32000	0.938	> 10200
P32-ISH (Burkitt lymphoma, suspension)	0.271	87.4	0.98	> 1020	0.994	> 5000	0.988	> 5000	0.505	328	0.717	3410	0.588	3280	0.881	6280
ES1 (Ewing sarcoma, adherent)	0.362	134	0.968	> 1020	0.986	> 5000	0.985	> 5000	0.656	860	0.37	439	0.423	1240	0.629	1450
SNU-387 (liver, adherent)	0.37	133	0.984	> 1020	0.592	580			0.507	335	0.769	6880	0.939	> 32000	0.955	> 10200
SISO (cervix, adherent)	0.711	1220	0.984	> 1020	0.78	1960	0.823	2780	0.558	457	0.775	6050	0.824	18000	0.891	> 10200
SW1783 (glioma, adherent)	0.8	2200	0.991	> 1020	0.952	> 5000			0.535	395	0.77	5490	0.984	> 32000	0.965	> 10200
PA-TU-8902 (pancreas, adherent)	0.423	190	0.984	> 1020	0.629	757	0.62	710	0.641	840	0.69	3760	0.779	15400	0.943	> 10200
BE-13 (lymphoblastic leukaemia, suspension)	0.213	49.3	0.941	> 1020	0.954	> 5000	0.949	> 5000	0.607	615	0.764	5450	0.903	> 32000	0.922	> 10200

Source: the supplement of paper PMC4967469
